Test results from PubChem BioAssay AID2675 (National Center for Advancing Translational Sciences (NCATS), 2010).
Among all 280,000 compounds or so, about 100 (0.036%) were called active. Inconclusive results, whose numbers are uncertain, are shown with a selection of clear calls. The call rests on the fitted dose curve; in most records, active means well fitted inhibition curve with a large enough effect in the signal ratio, with a control signal flat (not every such curve was filed as active); inconclusive means small, poorly fitted or top-dose-only effect, or effect the other way, or a change in a side signal; inactive means no such curve, though single readings can be large or run the other way; the % refers to the signal ratio. Potencies of inconclusive entries are doubtful fits and often do not repeat. A note “side channel” means that the fit belongs to a control or component signal, not to the main read-out.

target: Muscleblind-like protein 1 (Homo sapiens) (UniProt Q9NR56); assay: qHTS Assay for Inhibitors of MBNL1-poly(CUG) RNA binding; details: TR-FRET MBNL1-His/biotin-(CUG)12 binding, 665/545 ratio; activity change, negative = inhibition: at 57.5 µM (top of the series)
Method in brief: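 TR-FRET readout: Ex 340 nm, 665/545 nm emission ratio, normalized to buffer-only (basal) and MBNL1-(CUG)12 controls. Complex of MBNL1-His with Biotin-(CUG)12, compounds 92 nM–58 uM, incubated 60 min at room temperature.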
On the % scale 0 is the no-effect control and ±100 the full control effect; potency means the concentration at half of the fitted maximal effect; tags describe the fitted curve by direction and shape or compound fluorescence and quenching.

UniProt Q9NR56, sequence (Q9NR56 whole entry, looked up): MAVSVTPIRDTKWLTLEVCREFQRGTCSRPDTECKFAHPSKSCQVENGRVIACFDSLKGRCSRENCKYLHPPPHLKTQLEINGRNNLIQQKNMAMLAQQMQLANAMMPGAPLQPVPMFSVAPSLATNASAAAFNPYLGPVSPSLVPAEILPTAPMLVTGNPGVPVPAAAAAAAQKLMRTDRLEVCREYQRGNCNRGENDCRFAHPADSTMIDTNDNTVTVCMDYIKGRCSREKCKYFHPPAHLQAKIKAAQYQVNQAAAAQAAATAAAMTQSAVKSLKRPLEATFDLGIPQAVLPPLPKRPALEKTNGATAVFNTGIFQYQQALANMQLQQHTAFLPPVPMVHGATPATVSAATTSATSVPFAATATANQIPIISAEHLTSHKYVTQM

Row | SMILES | Potency | activity change, negative = inhibition
1 | CN1CCN(S(=O)C23CC4CC(CC(C4)C2)C3)CC1 (stereo unspecified) | inactive | 
2 | O=C(CNC(=O)c1ccncc1)N/N=C/c1cccc([N+](=O)[O-])c1 | inconclusive: 22.4 µM [quencher, side channel, partial curve] | 
3 | CCOc1ccc(-n2cnc3c(=O)[nH]c(N)nc32)cc1 | inconclusive: 0.112 µM [quencher, side channel, full curve] | 
4 | CC(CCc1ccccc1)NCC(O)c1cccc([N+](=O)[O-])c1 (stereo unspecified) | inconclusive: 31.6 µM [quencher, side channel, single point] | 
5 | COc1cc(N2CN=c3s/c(=C\c4ccccn4)c(=O)n3C2)cc(OC)c1OC | inconclusive: 39.8 µM [quencher, side channel, partial curve] | 
6 | Oc1ccc(Cc2ccc(Cl)cc2)c(O)c1 | inactive | 
7 | Cc1cc(C)nc(NC(=O)Cc2ccc([N+](=O)[O-])cc2)c1 | inconclusive: 17.8 µM [quencher, side channel, single point] | 
8 | Nc1[nH][nH]c(=O)c1N=Nc1ccc2c(c1)OCO2 | inconclusive: 14.1 µM [quencher, partial curve] | 
9 | CCCN=Cc1sc2ccc(OCC)cc2c1O | inconclusive: 22.4 µM [quencher, single point] | 
10 | O=C1Nc2cc(C(=O)NCCN3CCCCCC3)ccc2S/C1=C\c1ccccc1 | inconclusive: 28.2 µM [quencher, side channel, partial curve] | 
11 | COc1cccc(C2/C(=C(\O)c3ccc4c(c3)OCO4)C(=O)C(=O)N2CCN(C)C)c1OC (stereo unspecified) | inconclusive: 17.8 µM [quencher, side channel, single point] | 
12 | Cc1cccc2c1-c1sc(C(=O)Nc3ccccc3N3CCN(C)CC3)cc1CO2 | inactive | 
13 | COc1ccc(NC(=O)CN(C)CC(=O)Nc2ccccc2SC)cc1 | inactive | 
14 | COc1ccc(Nc2cc(NCCCO)c([N+](=O)[O-])c3nonc23)cc1 | inconclusive: 10 µM [quencher, side channel, partial curve] | 
15 | O=[N+]([O-])c1ccc(O)c2ncccc12 | inconclusive: 28.2 µM [quencher, side channel, partial curve] | 
16 | CC(Oc1ccccc1)C(=O)N=Nc1c(O)[nH]c2ccc(Br)cc12 (stereo unspecified) | inconclusive: 2.51 µM [quencher, side channel, full curve] | 
17 | CCCNC(=O)c1ccc(SCC(=O)N(CC)CC)c([N+](=O)[O-])c1 | inconclusive: 3.55 µM [quencher, side channel, full curve] | 
18 | Cn1cnc2c(=O)[nH]cc([N+](=O)[O-])c21 | inconclusive: 14.1 µM [quencher, side channel, partial curve] | 
19 | Cc1cccc(-n2c(O)c(C=Nc3cccc(O)c3)c3ccccc3c2=O)n1 | inconclusive: 17.8 µM [quencher, side channel, partial curve] | 
20 | N#C/C(=C\c1cccs1)C(=O)Nc1nccs1 | inconclusive: 11.2 µM [quencher, side channel, partial curve] | 
21 | O=C(C1CCN(CC2CC=CCC2)CC1)N(CCc1ccccc1)Cc1ccccc1 (stereo unspecified) |  | inactive: -11.1% [at 11.5 µM]

Row | SMILES | Potency | activity change, negative = inhibition
22 | Cc1cccc(NC(=O)c2cc([N+](=O)[O-])ccc2NC2CCCCC2)c1 |  | inconclusive: 2.73% [phenotype inactive]
23 | CC(C)CCNC(=O)c1cn(CC(C)C)c(=O)c2c1c1ccccc1n2C | inactive | 
24 | CCN(CC)CCn1c2ccccc2c2nc3ccccc3nc21 | inconclusive: 28.2 µM [quencher, side channel, partial curve] | 
25 | c1ccc(-c2csc3ncnc(-n4cnc5ccccc54)c23)cc1 | inactive | 
26 | CCc1c(C#N)c(N)nc(SCC(=O)OCc2ccccc2)c1C#N | inconclusive: 39.8 µM [fluorescent, side channel, single point] | 
27 | Cc1ccccc1C(=O)N1CCN(c2ccc([N+](=O)[O-])c(NCc3cccnc3)c2)CC1 | inconclusive: 12.6 µM [quencher, side channel, partial curve] | 
28 | COc1ccc2[nH]c(C(=O)N3CCC(Cc4ccccc4)CC3)cc2c1 | inconclusive: 39.8 µM [fluorescent, single point] | 
29 | CC1(C)C(=O)OC(c2cccn2-c2cccc([N+](=O)[O-])c2)C2(CCCCC2)C1=O (stereo unspecified) | inconclusive: 0.316 µM [fluorescent, side channel, full curve, poor fit] | 
30 | O=C(NCCN1C(=O)C2C3C=CC(C3)C2C1=O)NCc1ccccc1 (stereo unspecified) | inactive | 
31 | O=C(NN=C1CCCCCC1)c1ccc(Cl)s1 | inactive | 
32 | O=C(c1ccco1)N1CCN(c2cc(=O)n(-c3ccc(Cl)cc3)c(=O)[nH]2)CC1 | inconclusive: 3.98 µM [quencher, side channel, single point] | 
33 | COc1ccc2oc(C(=O)N3CCN(S(=O)(=O)c4cccc([N+](=O)[O-])c4)CC3)c(C)c2c1 | inconclusive: 12.6 µM [quencher, side channel, partial curve] | 
34 | CC(=O)Oc1ccc2oc(C)c(C(=O)N3CCOCC3)c2c1 | inactive | 
35 | COc1cccc(-c2cc(C(F)(F)F)n3nc(C(=O)Nc4c(C)n(C)n(-c5ccccc5)c4=O)cc3n2)c1 | inconclusive: 17.8 µM [quencher, side channel, partial curve] | 
36 | C=CCNc1oc(/C=C/c2ccccc2)nc1C#N | inconclusive: 25.1 µM [quencher, partial curve] | 
37 | CCCCN(CC)CCCNC(=O)c1cn(C)c2ccc(S(=O)(=O)N(C)C3CCCCC3)cc2c1=O | inconclusive: 6.31 µM [fluorescent, side channel, single point] | 
38 | Cc1ccc2cc(C)c(SCC(=O)Nc3ccc(S(=O)(=O)N4CCCC4)cc3)nc2c1 | inconclusive: 17.8 µM [fluorescent, side channel, single point] | 
39 | Nc1ccc(C#Cc2ccc3c(=O)c4ccccc4oc3c2)cc1 | inactive | 
40 | Cc1cc2nc(-c3ccccn3)c(-c3ccccn3)nc2cc1C | inconclusive: 15.8 µM [quencher, side channel, partial curve] | 
41 | Cc1csc(NC(=O)CCC(=O)N(CC(=O)NC2CCCC2)Cc2ccccc2)n1 | inactive | 
42 | Cn1cnnc1SCC(=O)c1cccc([N+](=O)[O-])c1 | inconclusive: 14.1 µM [quencher, side channel, partial curve] | 

Row | SMILES | Potency | activity change, negative = inhibition
43 | O=[N+]([O-])c1cccc(CN2CCN(c3cccc4[nH]ccc34)CC2)c1 | inconclusive: 17.8 µM [quencher, side channel, partial curve] | 
44 | Cc1ccc(-c2cc(-c3ccc(C)o3)nc(N)c2C#N)cc1 | inconclusive: 11.2 µM [quencher, side channel, partial curve] | 
45 | CC(=O)c1ccc(N2CCN(CC(O)COC(c3ccccc3)c3ccccc3)CC2)cc1 (stereo unspecified) | inactive | 
46 | COc1ccc(NC(=O)CSc2nc3ccccc3c3nc4ccccc4n23)cc1 | inconclusive: 7.94 µM [quencher, side channel, partial curve] | 
47 | O=C(O)CN1C(=O)/C(=C\c2cc(Br)ccc2OCc2ccccc2F)SC1=S | inactive | 
48 | CC(C)OP(=O)(OC(C)C)/C(C=O)=N\Nc1ccc([N+](=O)[O-])cc1 | inconclusive: 14.1 µM [quencher, side channel, partial curve] | 
49 | CCOc1cc(/C=N/O)cc(Br)c1OCC(=O)NCc1ccccc1 | inconclusive: 10 µM [quencher, side channel, partial curve] | 
50 | CC1(C)Cc2nc3sc4c(=O)[nH]cnc4c3cc2CS1 | inconclusive: 63.1 µM [inhibitor, partial curve] | 
51 | O=C(Cn1nnc2ccccc2c1=O)N1CCOCC1 | inconclusive: 12.6 µM [quencher, side channel, partial curve] | 
52 | CCOC(=O)/C(C)=N/NC(=O)c1cccc([N+](=O)[O-])c1 | inconclusive: 25.1 µM [quencher, side channel, partial curve] | 
53 | CCn1cc(/C=C(\NC(=O)c2ccc(OC)cc2)C(=O)N2CCOCC2)c2ccccc21 | inactive | 
54 | CC(=O)Nc1ccc2nc3ccccc3nc2c1 | inconclusive: 6.31 µM [quencher, side channel, partial curve] | 
55 | CCOC(=O)c1ccccc1NC(=O)Cc1ccccc1OC | inconclusive: 8.91 µM [quencher, side channel, single point] | 
56 | COC(=O)CN1C(=S)N(c2ccc(OC)cc2)C(=O)/C1=C/c1ccc(OC)cc1 | inconclusive: 28.2 µM [quencher, side channel, single point] | 
57 | COc1ccccc1CNC(=O)Cn1cc([N+](=O)[O-])ccc1=O | inconclusive: 25.1 µM [quencher, side channel, partial curve] | 
58 | COc1ccccc1CNC(=O)C1CCN(S(=O)(=O)c2cccc3nonc23)CC1 | inconclusive: 10 µM [quencher, side channel, partial curve] | 
59 | Cc1nc2nc(-c3cccs3)cn2nc1C | inconclusive: 15.8 µM [quencher, side channel, partial curve] | 
60 | COCCN1CCn2c(nc3cc([N+](=O)[O-])ccc32)C1 | inconclusive: 28.2 µM [quencher, side channel, partial curve] | 
61 | O=C(CN1CCN(c2ccc([N+](=O)[O-])cc2)CC1)Nc1ccccn1 | inconclusive: 10 µM [quencher, side channel, partial curve] | 
